Screen size: about 340,000 compounds; fewer than 10 were called active. The shares of active, inactive and inconclusive entries below differ from those in the screen. Calls come from the whole dose curve; as a rule, active = well fitted inhibition curve with a large enough effect in the main read-out, with a control signal flat (not every such curve was filed as active); inconclusive = small, poorly fitted or top-dose-only effect, or effect the other way, or a change in a side signal; inactive = no such curve, though single readings can be large or run the other way. Potencies beside an inconclusive call are fits to weak or partial responses and may not hold up. A note “side channel” means that the fit belongs to a control or component signal, not to the main read-out.
Target: Tumor susceptibility gene 101 protein (Homo sapiens) (UniProt Q99816)
Sequence of UniProt Q99816 (Q99816 whole entry, looked up): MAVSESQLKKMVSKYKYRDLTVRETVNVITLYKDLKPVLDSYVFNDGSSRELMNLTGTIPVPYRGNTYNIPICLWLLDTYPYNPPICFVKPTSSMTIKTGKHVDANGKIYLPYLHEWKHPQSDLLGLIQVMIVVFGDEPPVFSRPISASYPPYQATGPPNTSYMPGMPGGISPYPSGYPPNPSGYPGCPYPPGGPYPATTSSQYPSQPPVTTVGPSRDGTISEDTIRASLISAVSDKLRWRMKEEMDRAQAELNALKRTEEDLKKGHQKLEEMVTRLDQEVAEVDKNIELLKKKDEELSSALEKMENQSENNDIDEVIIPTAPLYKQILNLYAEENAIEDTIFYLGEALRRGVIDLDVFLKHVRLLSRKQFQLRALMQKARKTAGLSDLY
Test: qHTS Assay for Iinhibitors of HIV-1 Budding by Blocking the Interaction of PTAP/TSG101
Details: Fluorescence polarization, FITC-PTAP peptide / Tsg101 binding; series mostly up to 115 µM
Summary of the method: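 Steps: Tsg101 binding domain dispensed (10 uM final), compounds pinned in DMSO, FITC-labeled PTAP-motif peptide added (50 nM final); after 20 min binding at room temperature, polarization measured.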
Potency is the fitted concentration of half-maximal effect; tags give direction and shape of the fitted curve or compound fluorescence and quenching.

SMILES | Potency
COC(=O)CS(=O)(=O)c1nnc([C@H](Cc2ccccc2)NC(=O)OC(C)(C)C)o1 | inactive
CCN(C(=O)c1cc2c(=O)[nH]c3ccc(C)cc3c2s1)c1cccc(C)c1 | inactive
CC(C)CNC(=O)c1cccc(NC(=O)c2ccco2)c1 | inactive
Cc1cccc(C(=O)N[C@H](C(=O)Nc2ncc(C)s2)C(C)C)c1 | inactive
O=C(O)c1ccc(-n2c(-c3ccc(Br)cc3)n[nH]c2=S)cc1 | inconclusive: 56.2 µM [falling, partial curve, poor fit]
Cc1sc2nc3ccc(N4CCCC4)nn3c(=O)c2c1C | inactive
COCCCn1c(=O)/c(=C\c2ccccc2OC(C)C)s/c1=C(/C#N)C(=O)Nc1ccc(C(=O)O)cc1 | inconclusive: 79.4 µM [fluorescent, side channel, partial curve]
C/C(=N\NC(=O)c1nnn(-c2nonc2N)c1-c1ccc2c(c1)OCO2)c1ccc(C)cc1 | inconclusive: 63.1 µM [fluorescent, side channel, partial curve, poor fit]
O=C(COC(=O)/C=C/c1cccc(Br)c1)NC1CCCCC1 | inconclusive: 89.1 µM [fluorescent, side channel, single point]
Cc1ccc2nc3sc(C(=O)Nc4c(C)[nH]c(=O)[nH]c4=O)c(N)c3cc2c1 | inconclusive: 50.1 µM [fluorescent, side channel, partial curve, poor fit]
Cc1cc(/C=N/NC(N)=S)c(O)c(/C=N/NC(N)=S)c1 | inconclusive: 2.82 µM [fluorescent, side channel, full curve, poor fit]
CSc1ccc(C2NC(=O)c3c(sc4c3CCN(C)C4)N2)cc1 (configuration not stated) | inconclusive: 50.1 µM [fluorescent, side channel, partial curve, poor fit]
COc1ccc(C(=O)N/N=C/c2sc3ccccc3c2O)cc1 | inconclusive: 50.1 µM [fluorescent, partial curve, poor fit]
O=C(NCc1ccc(F)cc1)c1cccc2c1C(=O)c1ccc(N3CCOCC3)cc1S2(=O)=O | inconclusive: 89.1 µM [fluorescent, side channel, single point]
COC(=O)c1cc2c(C)c(C)c3ccccn3c-2c1C(=O)OC | inconclusive: 56.2 µM [fluorescent, side channel, partial curve, poor fit]
Cn1cccc1/C=C1\CCC/C(=C\c2cccn2C)C1=O | inconclusive: 39.8 µM [fluorescent, side channel, partial curve]
O=C(O)c1ccccc1C1=Nc2ccc(O)cc2Oc2cc(O)ccc21 | inconclusive: 56.2 µM [fluorescent, side channel, partial curve, poor fit]
Cc1cc(/C=C2\SC(=S)NC2=O)c(C)n1-c1ccccc1 | inconclusive: 39.8 µM [fluorescent, partial curve, poor fit]
Oc1ccccc1C=NN=Cc1c(O)ccc2ccccc12 | inconclusive: 56.2 µM [fluorescent, side channel, partial curve, poor fit]

SMILES | Potency
CCSc1nnc(NC(=O)C2CCCCC2)s1 | inactive
CC1=CC(=C(C#N)C#N)c2ccccc2N1C | inconclusive: 56.2 µM [fluorescent, side channel, partial curve, poor fit]
O=C(CNc1cccc(C(F)(F)F)c1)Nc1cccc(S(=O)(=O)N2CCCC2)c1 | inactive
COc1ccc(N(CC(=O)Nc2cccc(C)c2C)S(=O)(=O)c2c(C)n[nH]c2C)cc1 | inactive
COc1ccc2nc3ccccc3nc2c1NC(=O)c1ccc(Cl)cc1Cl | inconclusive: 56.2 µM [fluorescent, side channel, partial curve, poor fit]
Cn1nc(C(F)(F)F)c2cc(NC(=O)OCc3ccc(C(C)(C)C)cc3)sc21 | inactive
O=S(=O)(NN1CCOCC1)c1ccc(Br)cc1 | inactive
CC(C(=O)O)N1C(=O)/C(=C/c2cccn2C)SC1=S (configuration not stated) | inconclusive: 79.4 µM [fluorescent, side channel, partial curve, poor fit]
COc1ccc(-c2cn3nc4c(nc3n2)CCCC4)cc1 | inconclusive: 50.1 µM [fluorescent, side channel, partial curve, poor fit]
CCN(CC)c1ccc(/C=N/NC(=O)c2cccc(S(=O)(=O)Nc3ccccc3OC)c2)c(O)c1 | inconclusive: 79.4 µM [fluorescent, side channel, partial curve, poor fit]
Cc1ccc(/C=C2/SC(=O)N(CC(=O)N3CCOCC3)C2=O)s1 | inconclusive: 89.1 µM [fluorescent, side channel, single point]
COc1ccccc1N1CCN(Cc2nc(-c3ccc(F)cc3)oc2C)CC1 | inactive
COc1ccccc1N1C(=O)C2C(C(=O)c3ccccc3)=NN(c3ccccc3)C2C1=O (configuration not stated) | inconclusive: 20 µM [fluorescent, side channel, full curve, poor fit]
COc1ccc2nc3ccccc3nc2c1NC(=O)c1ccc(Br)cc1 | inconclusive: 56.2 µM [fluorescent, side channel, partial curve, poor fit]
CC1CC=C2C(C#N)=C(N)C(C#N)(C#N)C(c3cccs3)C2C1 (configuration not stated) | inconclusive: 56.2 µM [falling, partial curve, poor fit]
Cc1ccc(/C=C2\Oc3c(ccc(O)c3CN3CCN(C)CC3)C2=O)cc1 | inconclusive: 79.4 µM [fluorescent, side channel, partial curve]
CN(/C=C/C(=C\C=[N+](C)c1ccccc1)OCCCS(=O)(=O)[O-])c1ccccc1 | inconclusive: 56.2 µM [fluorescent, partial curve, poor fit]
COc1ccc(N(CC(=O)N/N=C/c2ccc(-c3ccc([N+](=O)[O-])cc3)o2)S(=O)(=O)c2ccc(C)cc2)cc1 | inconclusive: 89.1 µM [fluorescent, side channel, partial curve, poor fit]
